Source: PubChem BioAssay AID328 (DTP/NCI, 2004)
This continues a long series; more values of the same kind are listed elsewhere. Toxic doses and inconclusive results are not listed. The calls were made as follows: active = survival T/C of 150% or more; inactive = T/C below 125% in these data.

Test system: BDF1 mice, P388 leukemia ip, median survival T/C
Experiment: NCI In Vivo Anticancer Drug Screen. Data for tumor model P388 Leukemia (intraperitoneal) in B6D2F1 (BDF1) mice
Details: endpoint: median survival time, higher = longer survival
Procedure, shortened: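 Antitumour effect was judged in vivo: survival in drug-treated mice, normalised to that of vehicle-dosed controls, gives the reported T/C.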

Measured: T/C

COc1cccc2c1C(=O)c1c(O)c3c(c(O)c1C2=O)C[C@@](O)(C(C)=O)C[C@@H]3OC1CC(N)C(O)C(C)O1 (some centres not stated)
active: dose: 0.36 mg/kg/injection, schedule: Q## X010 (ip), vehicle: saline 220 % of control | dose: 0.37 mg/kg/injection, schedule: Q01DX010 (ip), vehicle: saline 200 % of control | dose: 0.75 mg/kg/injection, schedule: Q01DX010 (ip), vehicle: saline 235 % of control | dose: 0.9 mg/kg/injection, schedule: Q01DX009 (ip), vehicle: clinical formulation 221 % of control | dose: 1.0 mg/kg/injection, schedule: Q04DX003 (ip), vehicle: saline 220 % of control | dose: 1.5 mg/kg/injection, schedule: Q01DX010 (ip), vehicle: saline 300 % of control | dose: 3.0 mg/kg/injection, schedule: Q01DX010 (ip), vehicle: saline 170 % of control
